# Experimental data taken from the supplement of paper PMC8728848.
# The other results are listed elsewhere or left out.
# B1: CPA (Cicer arietinum) (protein)
# chain: MAFSYLNLVLVTLTTLFFLQTTKVKSQKSVSFHITNFTISRPSITLQGTAEFLPNVLLLNDIEHPVFVVGRALYSKPITLWNNKTGKVASFVTSFTFDVQDLKKTVPGHGLVFFLAPSGSEIPFSSDGGNLGVVDGKNAFNRFVGVEFDNFVNSWDPKYSHVGINVNSLISTKTVKWNRVSGELVKVSIVYDSVSTTLTVIVTYKNGQISILSQLVDLKAVLPDTVNIGFSASTTLVSPRQLHNIHSWSFTSTFET
# How the values were obtained:
# Assay in all cases: glycan array binding signal (z-score within array); higher = stronger binding
# Conditions in all cases: glycan notation: IUPAC condensed, linker removed
# Fuc(a1-2)Gal = molecular target: Fuc(a1-2)Gal
# Summary of the method: (§1)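 From the Consortium for Functional Glycomics database, 3228 arrays were curated, keeping only those whose protein sequence was available. Binding is given as a within-array Z-score averaged across arrays sharing a protein sequence and across linkers. Negative Z-scores can be read as non-binding.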
# Fuc(a1-2)Gal(b1-3)GalNAc = molecular target: Fuc(a1-2)Gal(b1-3)GalNAc
# Summary of the method: as §1
# [1] = molecular target: Fuc(a1-2)Gal(b1-3)GalNAc(a1-3)[Fuc(a1-2)]Gal(b1-4)Glc
# Summary of the method: as §1
# [2] = molecular target: Fuc(a1-2)Gal(b1-3)GalNAc(a1-3)[Fuc(a1-2)]Gal(b1-4)GlcNAc
# Summary of the method: as §1
# [3] = molecular target: Fuc(a1-2)Gal(b1-3)GalNAc(b1-3)Gal
# Summary of the method: as §1
# [4] = molecular target: Fuc(a1-2)Gal(b1-3)GalNAc(b1-3)Gal(a1-4)Gal(b1-4)Glc
# Summary of the method: as §1
# [5] = molecular target: Fuc(a1-2)Gal(b1-3)GalNAc(b1-4)[Neu5Ac(a2-3)]Gal(b1-4)Glc
# Summary of the method: as §1
# Fuc(a1-2)Gal(b1-3)GlcNAc = molecular target: Fuc(a1-2)Gal(b1-3)GlcNAc
# Summary of the method: as §1
# [6] = molecular target: Fuc(a1-2)Gal(b1-3)GlcNAc(b1-2)Man(a1-3)[Fuc(a1-2)Gal(b1-3)GlcNAc(b1-2)Man(a1-6)]Man(b1-4)GlcNAc(b1-4)GlcNAc
# Summary of the method: as §1
# [7] = molecular target: Fuc(a1-2)Gal(b1-3)GlcNAc(b1-2)Man(a1-3)[Fuc(a1-2)Gal(b1-3)GlcNAc(b1-2)Man(a1-6)]Man(b1-4)GlcNAc(b1-4)[Fuc(a1-6)]GlcNAc
# Summary of the method: as §1
# [8] = molecular target: Fuc(a1-2)Gal(b1-3)GlcNAc(b1-3)Gal(b1-4)Glc
# Summary of the method: as §1
# [9] = molecular target: Fuc(a1-2)Gal(b1-3)GlcNAc(b1-3)GalNAc
# Summary of the method: as §1
# [10] = molecular target: Fuc(a1-2)Gal(b1-3)GlcNAc(b1-3)[Fuc(a1-2)Gal(b1-3)GlcNAc(b1-6)]GalNAc
# Summary of the method: as §1
# [11] = molecular target: Fuc(a1-2)Gal(b1-3)GlcNAc(b1-3)[Gal(b1-4)GlcNAc(b1-6)]Gal(b1-4)Glc
# Summary of the method: as §1
# [12] = molecular target: Fuc(a1-2)Gal(b1-3)GlcNAc(b1-3)[Neu5Ac(a2-6)Gal(b1-4)GlcNAc(b1-6)]Gal(b1-4)Glc
# Summary of the method: as §1
# [13] = molecular target: Fuc(a1-2)Gal(b1-3)GlcNAc6S
# Summary of the method: as §1
# [14] = molecular target: Fuc(a1-2)Gal(b1-3)[Fuc(a1-4)]GlcNAc
# Summary of the method: as §1
# [15] = molecular target: Fuc(a1-2)Gal(b1-3)[Fuc(a1-4)]GlcNAc(b1-2)Man(a1-3)[Fuc(a1-2)Gal(b1-3)[Fuc(a1-4)]GlcNAc(b1-2)Man(a1-3)]Man(b1-4)GlcNAc(b1-4)GlcNAc
# Summary of the method: as §1
# [16] = molecular target: Fuc(a1-2)Gal(b1-3)[Fuc(a1-4)]GlcNAc(b1-2)Man(a1-3)[Fuc(a1-2)Gal(b1-3)[Fuc(a1-4)]GlcNAc(b1-2)Man(a1-6)]Man(b1-4)GlcNAc(b1-4)[Fuc(a1-6)]GlcNAc(b1-4)[Fuc(a1-6)]GlcNAc
# Summary of the method: as §1
# [17] = molecular target: Fuc(a1-2)Gal(b1-3)[Fuc(a1-4)]GlcNAc(b1-3)[Fuc(a1-3)[Gal(b1-4)]GlcNAc(b1-6)]Gal(b1-4)Glc
# Summary of the method: as §1
# [18] = molecular target: Fuc(a1-2)Gal(b1-3)[Fuc(a1-4)]GlcNAc(b1-3)[Gal(b1-4)GlcNAc(b1-6)]Gal(b1-4)Glc
# Summary of the method: as §1
# Fuc(a1-2)Gal(b1-4)Glc = molecular target: Fuc(a1-2)Gal(b1-4)Glc
# Summary of the method: as §1
# Fuc(a1-2)Gal(b1-4)Glc6S = molecular target: Fuc(a1-2)Gal(b1-4)Glc6S
# Summary of the method: as §1
# Fuc(a1-2)Gal(b1-4)GlcNAc = molecular target: Fuc(a1-2)Gal(b1-4)GlcNAc
# Summary of the method: as §1
# [19] = molecular target: Fuc(a1-2)Gal(b1-4)GlcNAc(b1-2)Man
# Summary of the method: as §1
# [20] = molecular target: Fuc(a1-2)Gal(b1-4)GlcNAc(b1-2)Man(a1-3)[Fuc(a1-2)Gal(b1-4)GlcNAc(b1-2)Man(a1-6)]Man(b1-4)GlcNAc(b1-4)GlcNAc
# Summary of the method: as §1
# [21] = molecular target: Fuc(a1-2)Gal(b1-4)GlcNAc(b1-2)Man(a1-3)[Fuc(a1-2)Gal(b1-4)GlcNAc(b1-2)Man(a1-6)]Man(b1-4)GlcNAc(b1-4)[Fuc(a1-6)]GlcNAc
# Summary of the method: as §1
# [22] = molecular target: Fuc(a1-2)Gal(b1-4)GlcNAc(b1-2)[Fuc(a1-2)Gal(b1-4)GlcNAc(b1-4)]Man(a1-3)[Fuc(a1-2)Gal(b1-4)GlcNAc(b1-2)Man(a1-6)]Man(b1-4)GlcNAc(b1-4)GlcNAc
# Summary of the method: as §1
# [23] = molecular target: Fuc(a1-2)Gal(b1-4)GlcNAc(b1-3)Gal(b1-4)GlcNAc
# Summary of the method: as §1
# [24] = molecular target: Fuc(a1-2)Gal(b1-4)GlcNAc(b1-3)Gal(b1-4)GlcNAc(b1-2)Man(a1-3)[Fuc(a1-2)Gal(b1-4)GlcNAc(b1-3)Gal(b1-4)GlcNAc(b1-2)Man(a1-6)]Man(b1-4)GlcNAc(b1-4)GlcNAc
# Summary of the method: as §1
binder,measurement,setting,value
B1,glycan array binding signal (z-score),Fuc(a1-2)Gal,-0.377
same,glycan array binding signal (z-score),Fuc(a1-2)Gal(b1-3)GalNAc,-0.424
same,glycan array binding signal (z-score),[1],-0.583
same,glycan array binding signal (z-score),[2],-0.277
same,glycan array binding signal (z-score),[3],-0.196
same,glycan array binding signal (z-score),[4],-0.651
same,glycan array binding signal (z-score),[5],-0.356
same,glycan array binding signal (z-score),Fuc(a1-2)Gal(b1-3)GlcNAc,-0.561
same,glycan array binding signal (z-score),[6],3.79
same,glycan array binding signal (z-score),[7],-0.045
same,glycan array binding signal (z-score),[8],-0.59
same,glycan array binding signal (z-score),[9],-0.558
same,glycan array binding signal (z-score),[10],1.04
same,glycan array binding signal (z-score),[11],-0.239
same,glycan array binding signal (z-score),[12],-0.283
same,glycan array binding signal (z-score),[13],-0.242
same,glycan array binding signal (z-score),[14],-0.329
same,glycan array binding signal (z-score),[15],0.392
same,glycan array binding signal (z-score),[16],-0.262
same,glycan array binding signal (z-score),[17],-0.54
same,glycan array binding signal (z-score),[18],-0.072
same,glycan array binding signal (z-score),Fuc(a1-2)Gal(b1-4)Glc,-0.421
same,glycan array binding signal (z-score),Fuc(a1-2)Gal(b1-4)Glc6S,-0.116
same,glycan array binding signal (z-score),Fuc(a1-2)Gal(b1-4)GlcNAc,-0.329
same,glycan array binding signal (z-score),[19],-0.729
same,glycan array binding signal (z-score),[20],0.406
same,glycan array binding signal (z-score),[21],0.297
same,glycan array binding signal (z-score),[22],0.366
same,glycan array binding signal (z-score),[23],-0.178
same,glycan array binding signal (z-score),[24],0.012
